# This is one part of the list.
# Legend:
# Test in all cases: glycan array binding signal (z-score within array); higher = stronger binding
# Conditions in all cases: glycan notation: IUPAC condensed, linker removed
# Gal6S(b1-4)Glc = target: Gal6S(b1-4)Glc
# Procedure, shortened: (§1)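 Columns mapping to the same glycan were averaged after glycan names were converted to IUPAC-condensed notation. The data come from 3228 arrays in the Consortium for Functional Glycomics database, limited to those with an available protein sequence. Binding is reported as a within-array Z-score averaged across arrays of one protein sequence and across linkers.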
# Gal6S(b1-4)Glc6S = target: Gal6S(b1-4)Glc6S
# Procedure, shortened: as §1
# Gal6S(b1-4)GlcNAc = target: Gal6S(b1-4)GlcNAc
# Procedure, shortened: as §1
# GalNAc(a1-3)Gal = target: GalNAc(a1-3)Gal
# Procedure, shortened: as §1
# GalNAc(a1-3)GalNAc = target: GalNAc(a1-3)GalNAc
# Procedure, shortened: as §1
# [1] = target: GalNAc(b1-3)Gal(a1-4)Gal(b1-4)GlcNAc
# Procedure, shortened: as §1
# GalNAc(b1-4)GlcNAc = target: GalNAc(b1-4)GlcNAc
# Procedure, shortened: as §1
# Glc(a1-4)Glc = target: Glc(a1-4)Glc
# Procedure, shortened: as §1
# Glc(a1-6)Glc(a1-6)Glc = target: Glc(a1-6)Glc(a1-6)Glc
# Procedure, shortened: as §1
# Glc(b1-4)Glc = target: Glc(b1-4)Glc
# Procedure, shortened: as §1
# Glc(b1-6)Glc = target: Glc(b1-6)Glc
# Procedure, shortened: as §1
# GlcA(b1-3)Gal = target: GlcA(b1-3)Gal
# Procedure, shortened: as §1
# GlcA(b1-6)Gal = target: GlcA(b1-6)Gal
# Procedure, shortened: as §1
# [2] = target: GlcNAc(a1-3)Gal(b1-4)GlcNAc
# Procedure, shortened: as §1
# [3] = target: GlcNAc(a1-6)Gal(b1-4)GlcNAc
# Procedure, shortened: as §1
# [4] = target: GlcNAc(b1-2)Gal(b1-3)GlcNAc
# Procedure, shortened: as §1
# [5] = target: GlcNAc(b1-2)Man(a1-3)[GlcNAc(b1-2)Man(a1-6)]Man(b1-4)GlcNAc(b1-4)GlcNAc
# Procedure, shortened: as §1
# GlcNAc(b1-3)Gal = target: GlcNAc(b1-3)Gal
# Procedure, shortened: as §1
# [6] = target: GlcNAc(b1-3)Gal(b1-3)GalNAc
# Procedure, shortened: as §1
# GlcNAc(b1-3)Gal(b1-4)Glc = target: GlcNAc(b1-3)Gal(b1-4)Glc
# Procedure, shortened: as §1
# [7] = target: GlcNAc(b1-3)Gal(b1-4)GlcNAc
# Procedure, shortened: as §1
# [8] = target: GlcNAc(b1-3)Gal(b1-4)GlcNAc(b1-3)Gal(b1-4)GlcNAc
# Procedure, shortened: as §1
# GlcNAc(b1-3)GalNAc = target: GlcNAc(b1-3)GalNAc
# Procedure, shortened: as §1
# [9] = target: GlcNAc(b1-3)[GlcNAc(b1-4)][GlcNAc(b1-6)]GlcNAc
# Procedure, shortened: as §1
# [10] = target: GlcNAc(b1-3)[GlcNAc(b1-6)]Gal(b1-4)GlcNAc
# Procedure, shortened: as §1
# [11] = target: GlcNAc(b1-3)[GlcNAc(b1-6)]GlcNAc
# Procedure, shortened: as §1
# [12] = target: GlcNAc(b1-4)Gal(b1-4)GlcNAc
# Procedure, shortened: as §1
# [13] = target: GlcNAc(b1-4)GlcNAc(b1-4)GlcNAc
# Procedure, shortened: as §1
# [14] = target: GlcNAc(b1-4)GlcNAc(b1-4)GlcNAc(b1-4)GlcNAc(b1-4)GlcNAc
# Procedure, shortened: as §1
# [15] = target: GlcNAc(b1-4)GlcNAc(b1-4)GlcNAc(b1-4)GlcNAc(b1-4)GlcNAc(b1-4)GlcNAc
# Procedure, shortened: as §1
# [16] = target: GlcNAc(b1-4)[GlcNAc(b1-6)]GalNAc
# Procedure, shortened: as §1
# [17] = target: GlcNAc(b1-6)Gal(b1-4)GlcNAc
# Procedure, shortened: as §1
# GlcNAc(b1-6)GalNAc = target: GlcNAc(b1-6)GalNAc
# Procedure, shortened: as §1
# Kdn(a2-3)Gal(b1-3)GlcNAc = target: Kdn(a2-3)Gal(b1-3)GlcNAc
# Procedure, shortened: as §1
# Kdn(a2-3)Gal(b1-4)GlcNAc = target: Kdn(a2-3)Gal(b1-4)GlcNAc
# Procedure, shortened: as §1
# [18] = target: Man(a1-2)Man(a1-2)Man(a1-3)Man
# Procedure, shortened: as §1
# [19] = target: Man(a1-2)Man(a1-2)Man(a1-3)[Man(a1-2)Man(a1-3)[Man(a1-2)Man(a1-6)]Man(a1-6)]Man(b1-4)GlcNAc(b1-4)GlcNAc
# Procedure, shortened: as §1
# [20] = target: Man(a1-2)Man(a1-2)Man(a1-3)[Man(a1-2)Man(a1-6)[Man(a1-3)]Man(a1-6)]Man(b1-4)GlcNAc(b1-4)GlcNAc
# Procedure, shortened: as §1
# [21] = target: Man(a1-2)Man(a1-2)Man(a1-6)[Man(a1-3)]Man
# Procedure, shortened: as §1
# Man(a1-2)Man(a1-3)Man = target: Man(a1-2)Man(a1-3)Man
# Procedure, shortened: as §1
# [22] = target: Man(a1-2)Man(a1-3)[Man(a1-2)Man(a1-6)]Man
# Procedure, shortened: as §1
# [23] = target: Man(a1-2)Man(a1-3)[Man(a1-3)[Man(a1-6)]Man(a1-6)]Man(b1-4)GlcNAc(b1-4)GlcNAc
# Procedure, shortened: as §1
# [24] = target: Man(a1-2)Man(a1-3)[Man(a1-6)]Man(a1-6)[Man(a1-2)Man(a1-3)]Man(b1-4)GlcNAc(b1-4)GlcNAc
# Procedure, shortened: as §1
# Man(a1-3)[Man(a1-6)]Man = target: Man(a1-3)[Man(a1-6)]Man
# Procedure, shortened: as §1
# [25] = target: Man(a1-3)[Man(a1-6)]Man(a1-6)[Man(a1-3)]Man(b1-4)GlcNAc(b1-4)GlcNAc
# Procedure, shortened: as §1
# [26] = target: Man(a1-3)[Man(a1-6)]Man(b1-4)GlcNAc(b1-4)GlcNAc
# Procedure, shortened: as §1
# Man(b1-4)GlcNAc = target: Man(b1-4)GlcNAc
# Procedure, shortened: as §1
# Neu5Ac(a2-3)Gal = target: Neu5Ac(a2-3)Gal
# Procedure, shortened: as §1
# [27] = target: Neu5Ac(a2-3)Gal(b1-3)GalNAc
# Procedure, shortened: as §1
binder,measurement,setting,value
Tulipa lectin C-1 (Tulipa hybrid) (protein) MGMALVVALAVALASTVAGQQNVLLSGNTLANEESLSYGSVKFIMQNDCNLVLYGGGFQSNTASNGKKCTLTLNNNGHLIINDGLTGRVVWRNSNAQNPVGRYAAVLRPAPGTADVAIYGPAIWSTNDEFSYQESGVVPHKLGRETPNLPRMQNLLFSGQTLYGTDGMLSSNDGSTTFELSKCQLSLSLGNEVKWKVAPTVENGKENYCHVRLDHRGHLSLLNDDNVVLFRSIPTNGVEPPIGDYVLIVEKGAGYIYGPPIWNTYDNRRYKVASA,glycan array binding signal (z-score),Gal6S(b1-4)Glc,-0.189
same,glycan array binding signal (z-score),Gal6S(b1-4)Glc6S,0.244
same,glycan array binding signal (z-score),Gal6S(b1-4)GlcNAc,-0.12
same,glycan array binding signal (z-score),GalNAc(a1-3)Gal,-0.199
same,glycan array binding signal (z-score),GalNAc(a1-3)GalNAc,-0.164
same,glycan array binding signal (z-score),[1],-0.223
same,glycan array binding signal (z-score),GalNAc(b1-4)GlcNAc,-0.123
same,glycan array binding signal (z-score),Glc(a1-4)Glc,-0.205
same,glycan array binding signal (z-score),Glc(a1-6)Glc(a1-6)Glc,-0.187
same,glycan array binding signal (z-score),Glc(b1-4)Glc,-0.208
same,glycan array binding signal (z-score),Glc(b1-6)Glc,-0.219
same,glycan array binding signal (z-score),GlcA(b1-3)Gal,-0.191
same,glycan array binding signal (z-score),GlcA(b1-6)Gal,-0.196
same,glycan array binding signal (z-score),[2],-0.207
same,glycan array binding signal (z-score),[3],-0.237
same,glycan array binding signal (z-score),[4],-0.232
same,glycan array binding signal (z-score),[5],4.39
same,glycan array binding signal (z-score),GlcNAc(b1-3)Gal,-0.202
same,glycan array binding signal (z-score),[6],-0.133
same,glycan array binding signal (z-score),GlcNAc(b1-3)Gal(b1-4)Glc,-0.233
same,glycan array binding signal (z-score),[7],-0.23
same,glycan array binding signal (z-score),[8],-0.239
same,glycan array binding signal (z-score),GlcNAc(b1-3)GalNAc,-0.135
same,glycan array binding signal (z-score),[9],-0.208
same,glycan array binding signal (z-score),[10],-0.244
same,glycan array binding signal (z-score),[11],-0.218
same,glycan array binding signal (z-score),[12],-0.214
same,glycan array binding signal (z-score),[13],-0.216
same,glycan array binding signal (z-score),[14],-0.241
same,glycan array binding signal (z-score),[15],-0.214
same,glycan array binding signal (z-score),[16],-0.224
same,glycan array binding signal (z-score),[17],-0.235
same,glycan array binding signal (z-score),GlcNAc(b1-6)GalNAc,-0.229
same,glycan array binding signal (z-score),Kdn(a2-3)Gal(b1-3)GlcNAc,-0.208
same,glycan array binding signal (z-score),Kdn(a2-3)Gal(b1-4)GlcNAc,-0.227
same,glycan array binding signal (z-score),[18],-0.157
same,glycan array binding signal (z-score),[19],-0.114
same,glycan array binding signal (z-score),[20],-0.209
same,glycan array binding signal (z-score),[21],-0.223
same,glycan array binding signal (z-score),Man(a1-2)Man(a1-3)Man,-0.072
same,glycan array binding signal (z-score),[22],-0.116
same,glycan array binding signal (z-score),[23],-0.179
same,glycan array binding signal (z-score),[24],-0.224
same,glycan array binding signal (z-score),Man(a1-3)[Man(a1-6)]Man,-0.225
same,glycan array binding signal (z-score),[25],-0.2
same,glycan array binding signal (z-score),[26],4.98
same,glycan array binding signal (z-score),Man(b1-4)GlcNAc,-0.214
same,glycan array binding signal (z-score),Neu5Ac(a2-3)Gal,-0.192
same,glycan array binding signal (z-score),[27],-0.232

# From the supplement of paper PMC8728848
